# Test results as given in the supplement of paper PMC8728848.
# The other results are listed elsewhere or left out.
# B1: SBD-G4S3-Fc (protein)
# chain: MASIPSSASVQLDSYNYDGSTFSGKIYVKNIAYSKKVTVVYADGSDNWNNNGNIIAASFSGPISGSNYEYWTFSASVKGIKEFYIKYEVSGKTYYDNNNSANYQVSTGGGGSGGGGSGGGGSEFVPRDCGCKPCICTVPEVSSVFIFPPKPKDVLTITLTPKVTCVVVDISKDDPEVQFSWFVDDVEVHTAQTQPREEQFNSTFRSVSELPIMHQDWLNGKEFKCRVNSAAFPAPIEKTISKTKGRPKAPQVYTIPPPKEQMAKDKVSLTCMITDFFPEDITVEWQWNGQPAENYKNTQPIMDTDGSYFVYSKLNVQKSNWEAGNTFTCSVLHEGLHNHHTEKSLSHSPGAA
# Legend:
# Experiment in all cases: glycan array binding signal (z-score within array); higher = stronger binding
# Details in all cases: glycan notation: IUPAC condensed, linker removed
# [1] = target: Neu5Ac(a2-6)Gal(b1-4)GlcNAc(b1-3)Gal(b1-4)GlcNAc(b1-3)GalNAc
# Method in brief: (§1)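 The Consortium for Functional Glycomics database supplied 3228 glycan arrays, of which those lacking an available protein sequence were dropped. The binding signal, a within-array Z-score, was averaged across arrays of the same protein sequence and across linkers. Negative scores can be read as non-binding.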
# [2] = target: Neu5Ac(a2-6)Gal(b1-4)GlcNAc(b1-3)Gal(b1-4)GlcNAc(b1-3)[Neu5Ac(a2-6)Gal(b1-4)GlcNAc(b1-3)Gal(b1-4)GlcNAc(b1-6)]GalNAc
# Method in brief: as §1
# [3] = target: Neu5Ac(a2-6)Gal(b1-4)GlcNAc(b1-3)Gal(b1-4)GlcNAc(b1-6)[Gal(b1-3)]GalNAc
# Method in brief: as §1
# [4] = target: Neu5Ac(a2-6)Gal(b1-4)GlcNAc(b1-3)Gal(b1-4)[Fuc(a1-3)]GlcNAc(b1-3)Gal(b1-4)[Fuc(a1-3)]GlcNAc
# Method in brief: as §1
# [5] = target: Neu5Ac(a2-6)Gal(b1-4)GlcNAc(b1-3)GalNAc
# Method in brief: as §1
# [6] = target: Neu5Ac(a2-6)Gal(b1-4)GlcNAc(b1-3)[Neu5Ac(a2-6)Gal(b1-4)GlcNAc(b1-6)]GalNAc
# Method in brief: as §1
# [7] = target: Neu5Ac(a2-6)Gal(b1-4)GlcNAc(b1-6)GalNAc
# Method in brief: as §1
# [8] = target: Neu5Ac(a2-6)Gal(b1-4)GlcNAc(b1-6)[Gal(b1-3)GlcNAc(b1-3)]Gal(b1-4)Glc
# Method in brief: as §1
# [9] = target: Neu5Ac(a2-6)Gal(b1-4)GlcNAc(b1-6)[Gal(b1-3)]GalNAc
# Method in brief: as §1
# [10] = target: Neu5Ac(a2-6)Gal(b1-4)GlcNAc6S
# Method in brief: as §1
# [11] = target: Neu5Ac(a2-6)GalNAc
# Method in brief: as §1
# [12] = target: Neu5Ac(a2-6)GalNAc(b1-4)GlcNAc
# Method in brief: as §1
# [13] = target: Neu5Ac(a2-6)GalNAc(b1-4)GlcNAc6S
# Method in brief: as §1
# [14] = target: Neu5Ac(a2-6)GlcNAc(b1-4)GlcNAc
# Method in brief: as §1
# [15] = target: Neu5Ac(a2-6)GlcNAc(b1-4)GlcNAc(b1-4)GlcNAc
# Method in brief: as §1
# [16] = target: Neu5Ac(a2-8)Neu5Ac
# Method in brief: as §1
# [17] = target: Neu5Ac(a2-8)Neu5Ac(a2-3)Gal(b1-3)GalNAc(b1-4)[Neu5Ac(a2-3)]Gal(b1-4)Glc
# Method in brief: as §1
# [18] = target: Neu5Ac(a2-8)Neu5Ac(a2-3)Gal(b1-3)GalNAc(b1-4)[Neu5Ac(a2-8)Neu5Ac(a2-3)]Gal(b1-4)Glc
# Method in brief: as §1
# [19] = target: Neu5Ac(a2-8)Neu5Ac(a2-3)Gal(b1-4)Glc
# Method in brief: as §1
# [20] = target: Neu5Ac(a2-8)Neu5Ac(a2-3)Gal(b1-4)GlcNAc
# Method in brief: as §1
# [21] = target: Neu5Ac(a2-8)Neu5Ac(a2-3)[Gal(b1-3)GalNAc(b1-4)]Gal(b1-4)Glc
# Method in brief: as §1
# [22] = target: Neu5Ac(a2-8)Neu5Ac(a2-3)[GalNAc(b1-4)]Gal(b1-4)Glc
# Method in brief: as §1
# [23] = target: Neu5Ac(a2-8)Neu5Ac(a2-8)Neu5Ac
# Method in brief: as §1
# [24] = target: Neu5Ac(a2-8)Neu5Ac(a2-8)Neu5Ac(a2-3)Gal(b1-4)Glc
# Method in brief: as §1
# [25] = target: Neu5Ac(a2-8)Neu5Ac(a2-8)Neu5Ac(a2-3)[Gal(b1-3)GalNAc(b1-4)]Gal(b1-4)Glc
# Method in brief: as §1
# [26] = target: Neu5Ac(a2-8)Neu5Ac(a2-8)Neu5Ac(a2-3)[GalNAc(b1-4)]Gal(b1-4)Glc
# Method in brief: as §1
# [27] = target: Neu5Ac(a2-8)Neu5Ac(a2-8)Neu5Ac(a2-8)Neu5Ac(a2-3)[GalNAc(b1-4)]Gal(b1-4)Glc
# Method in brief: as §1
# [28] = target: Neu5Ac(a2-8)Neu5Gc(a2-3)Gal(b1-4)GlcNAc
# Method in brief: as §1
# [29] = target: Neu5Ac(b2-6)Gal(b1-4)GlcNAc
# Method in brief: as §1
# [30] = target: Neu5Ac(b2-6)GalNAc
# Method in brief: as §1
# [31] = target: Neu5Ac9Ac(a2-3)Gal(b1-3)GlcNAc
# Method in brief: as §1
# [32] = target: Neu5Ac9Ac(a2-3)Gal(b1-4)GlcNAc
# Method in brief: as §1
# [33] = target: Neu5Ac9Ac(a2-6)Gal(b1-4)GlcNAc
# Method in brief: as §1
# [34] = target: Neu5Gc(a2-3)Gal(b1-3)GlcNAc
# Method in brief: as §1
# [35] = target: Neu5Gc(a2-3)Gal(b1-3)[Fuc(a1-4)]GlcNAc
# Method in brief: as §1
# [36] = target: Neu5Gc(a2-3)Gal(b1-4)Glc
# Method in brief: as §1
# [37] = target: Neu5Gc(a2-3)Gal(b1-4)GlcNAc
# Method in brief: as §1
# [38] = target: Neu5Gc(a2-3)Gal(b1-4)GlcNAc(b1-3)Gal(b1-4)GlcNAc(b1-2)Man(a1-3)[Neu5Gc(a2-3)Gal(b1-4)GlcNAc(b1-3)Gal(b1-4)GlcNAc(b1-2)Man(a1-6)]Man(b1-4)GlcNAc(b1-4)GlcNAc
# Method in brief: as §1
# [39] = target: Neu5Gc(a2-3)Gal(b1-4)[Fuc(a1-3)]GlcNAc
# Method in brief: as §1
# [40] = target: Neu5Gc(a2-6)Gal(b1-4)GlcNAc
# Method in brief: as §1
# [41] = target: Neu5Gc(a2-6)GalNAc
# Method in brief: as §1
# [42] = target: Neu5Gc(a2-8)Neu5Ac(a2-3)Gal(b1-4)GlcNAc
# Method in brief: as §1
# [43] = target: Neu5Gc(a2-8)Neu5Gc(a2-3)Gal(b1-4)GlcNAc
# Method in brief: as §1
# [44] = target: Neu5Gc(a2-8)Neu5Gc(a2-3)Gal(b1-4)GlcNAc(b1-3)Gal(b1-4)GlcNAc
# Method in brief: as §1
# [45] = target: Neu5Gc(a2-8)Neu5Gc(a2-6)Gal(b1-4)GlcNAc
# Method in brief: as §1
# [46] = target: Neu5Gc(b2-6)Gal(b1-4)GlcNAc
# Method in brief: as §1
binder,measurement,setting,value
B1,glycan array binding signal (z-score),[1],-0.176
same,glycan array binding signal (z-score),[2],-0.226
same,glycan array binding signal (z-score),[3],0.674
same,glycan array binding signal (z-score),[4],-0.041
same,glycan array binding signal (z-score),[5],-0.264
same,glycan array binding signal (z-score),[6],-0.37
same,glycan array binding signal (z-score),[7],0.154
same,glycan array binding signal (z-score),[8],0.209
same,glycan array binding signal (z-score),[9],-0.2
same,glycan array binding signal (z-score),[10],-0.205
same,glycan array binding signal (z-score),[11],-0.304
same,glycan array binding signal (z-score),[12],-0.316
same,glycan array binding signal (z-score),[13],-0.27
same,glycan array binding signal (z-score),[14],0.005
same,glycan array binding signal (z-score),[15],-0.461
same,glycan array binding signal (z-score),[16],-0.103
same,glycan array binding signal (z-score),[17],0.176
same,glycan array binding signal (z-score),[18],-0.313
same,glycan array binding signal (z-score),[19],-0.345
same,glycan array binding signal (z-score),[20],0.376
same,glycan array binding signal (z-score),[21],-0.244
same,glycan array binding signal (z-score),[22],-0.463
same,glycan array binding signal (z-score),[23],-0.37
same,glycan array binding signal (z-score),[24],-0.456
same,glycan array binding signal (z-score),[25],-0.248
same,glycan array binding signal (z-score),[26],-0.468
same,glycan array binding signal (z-score),[27],-0.006
same,glycan array binding signal (z-score),[28],7.21
same,glycan array binding signal (z-score),[29],-0.368
same,glycan array binding signal (z-score),[30],-0.513
same,glycan array binding signal (z-score),[31],0.058
same,glycan array binding signal (z-score),[32],-0.352
same,glycan array binding signal (z-score),[33],0.039
same,glycan array binding signal (z-score),[34],-0.167
same,glycan array binding signal (z-score),[35],-0.293
same,glycan array binding signal (z-score),[36],-0.139
same,glycan array binding signal (z-score),[37],-0.038
same,glycan array binding signal (z-score),[38],-0.115
same,glycan array binding signal (z-score),[39],0.185
same,glycan array binding signal (z-score),[40],-0.372
same,glycan array binding signal (z-score),[41],-0.136
same,glycan array binding signal (z-score),[42],-0.265
same,glycan array binding signal (z-score),[43],0.127
same,glycan array binding signal (z-score),[44],-0.307
same,glycan array binding signal (z-score),[45],-0.4
same,glycan array binding signal (z-score),[46],-0.085
